Measured values reported in PubChem BioAssay AID504706 (National Center for Advancing Translational Sciences (NCATS), 2011).
Among all 320,000 compounds or so, about 200 (0.062%) were called active. The shares of active, inactive and inconclusive entries below differ from those in the screen. Calls come from the whole dose curve; as a rule, active = well fitted activation curve with a large enough effect; inconclusive = small, poorly fitted or top-dose-only effect; inactive = no such curve, though single readings can be large or run the other way. Potencies of inconclusive entries are left out as doubtful fits.

Experiment: qHTS assay for re-activators of p53 using a Luc reporter; note: nearly all actives have a fitted effect of over 45% in size; for activity change, positive = activation: % of control where 0% means no effect
Conditions: H1299 p53-A138V BP100-luciferase reporter, luminescence, 24 h; series mostly up to 92.2 µM; activity change, positive = activation: at the top concentration
Procedure, shortened: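 H1299 (p53-null), stable ts p53-A138V + BP100-Luc; 1000 cells/well, Opti-MEM/10% FBS; cpd 4 pt, 1:5; 24 h, 37 deg C, 5% CO2; detection reagent 10 min RT; luminescence.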
Potency is the fitted concentration of half-maximal effect; tags give direction and shape of the fitted curve.

SMILES | Potency | activity change, positive = activation
NC(=O)C1CCN(c2nc(-c3ccccc3Br)cs2)CC1 | inconclusive [activator, partial curve, poor fit] | 
CC12CCC(=O)C=C1CCC1C2CCC2(C)C1CC[C@]2(O)C(=O)CO (some centres not stated) |  | inactive: 9.14%
Cc1ccc(NC(=S)Nc2cccc3ccccc23)cc1 | inconclusive [activator, partial curve, poor fit] | 
O=C(/C=C/c1ccccc1)NC1CC2CCC1C2 (configuration not stated) | inconclusive [activator, partial curve, poor fit] | 
Cc1ccc(N/N=C/c2ccc3c(c2)OCCO3)cc1Cl | inconclusive [activator, partial curve, poor fit] | 
COc1ccc(C/C(N)=N/n2cnnc2)cc1Cl | inconclusive [activator, single point] | 
CC(=O)Nc1cccc(-c2nc3ccccc3s2)c1 | inconclusive [activator, partial curve, poor fit] | 
O=C(Nc1ccc(Cl)c(Cl)c1)N1CCC(N2CCCCC2)CC1 |  | inactive: -1.94%
O=C(COc1ccc(/C=N/NC(=O)c2ccncc2)cc1)Nc1ccccc1 | inconclusive [activator, partial curve, poor fit] | 
O=c1c[n+]([O-])c2ccccc2n1OCc1c(F)cccc1F |  | inactive: 1.38%
Cc1ccnc(NCc2c(O)ccc3ccccc23)c1 | inconclusive [activator, single point] | 
COc1cc(C(=O)NCc2ccc(-c3nc4ccccc4s3)cc2)cc(OC)c1OC | inconclusive [activator, full curve, poor fit] | 
COc1ccc(Cl)cc1C(=O)NCCCSc1ccccc1 |  | inactive: -3.18%
Cc1nnc(NC(=O)c2ccc3ccccc3c2)o1 | inconclusive [activator, single point] | 
O=C(OC(c1ccccc1)c1nccc2ccccc12)c1cccc([N+](=O)[O-])c1 (configuration not stated) | inconclusive [activator, partial curve, poor fit] | 
O=C1CC(c2ccc(F)cc2)C2=C(CCCC2=O)N1 (configuration not stated) | inconclusive [activator, single point] | 
O=C(Nc1ccccn1)Nc1ccccc1Cl | inconclusive [activator, single point] | 
O=C(COC(=O)C1CCCCC1)Nc1ccc(N2CCCCC2)cc1 | inconclusive [activator, single point] | 
CC1Cc2cc(/C(O)=C3/C(=O)C(=O)N(Cc4ccco4)C3c3cccs3)ccc2O1 (configuration not stated) | inconclusive [activator, partial curve, poor fit] | 
CCCSc1nnc(Cc2cc(=O)[nH]c(=O)[nH]2)n1-c1cc(C)ccc1C |  | inactive: -8.25%
CN(C)S(=O)(=O)c1cccc(NC(=O)COC(=O)CCC(=O)c2ccc(F)cc2)c1 |  | inactive: 7.29%
O=C(N/N=C1/CC2C=CCC12)c1ccco1 (configuration not stated) | inconclusive [activator, single point] | 
Cc1cc(/C=C(/C#N)c2cccc(F)c2)c(C)n1-c1cccnc1 | inconclusive [activator, full curve, poor fit] | 

SMILES | Potency | activity change, positive = activation
C[C@@H]1C=C[C@](Cc2ccccc2)(C(=O)NCC2CC2)N1C(=O)c1ccccc1 | inconclusive [activator, partial curve, poor fit] | 
COc1ccc(-c2ccc(=O)n(Cc3ccccc3)n2)cc1 |  | inactive: -4.49%
CCOc1ccc(NC2c3ccccc3C(=O)N2c2ccc(Cl)cn2)cc1 (configuration not stated) | inconclusive [activator, partial curve, poor fit] | 
O=C(Nc1ccc2c(c1)OCCO2)C1CCN(C(=O)c2ccc(F)cc2)CC1 | inconclusive [activator, partial curve, poor fit] | 
CCCCn1cnc2c(sc3nc4c(cc32)CSC(C)(C)C4)c1=O | inconclusive [activator, full curve, poor fit] | 
COc1ccc(-c2cc(-c3cc(F)ccc3O)[nH]n2)cc1OC |  | inactive: 8.17%
O=Cc1ccc(OCc2cccc(C(F)(F)F)c2)cc1O | inconclusive [activator, single point] | 
CCOc1ccccc1OCCn1ncc2ccc(OC)c(OC)c2c1=O | inconclusive [activator, partial curve, poor fit] | 
Fc1ccc(CSc2nc3ncccc3[nH]2)cc1 | inconclusive [activator, partial curve, poor fit] | 
CC(C)c1ccc(NC(=O)NCc2ccccn2)cc1 | inconclusive [activator, full curve, poor fit] | 
COCCN(C(=O)c1ccc(-c2ccc([N+](=O)[O-])cc2)o1)c1c(N)n(CC(C)C)c(=O)[nH]c1=O |  | inactive: -3.54%
COc1ccc(C(=O)OCCN2C(=O)c3ccccc3C2=O)cc1 | inconclusive [activator, partial curve, poor fit] | 
O=c1oc(-c2ccco2)nc2sc3c(c12)CCCC3 | inconclusive [activator, partial curve, poor fit] | 
Cc1ccc(Nc2nc(N)c([N+](=O)[O-])c(NCc3ccco3)n2)cc1C | inconclusive [activator, partial curve, poor fit] | 
CN(C)c1ccc(C2CC(c3ccccc3)=Nc3nc(-c4ccccc4)cn32)cc1 (configuration not stated) | inconclusive [activator, partial curve, poor fit] | 
COc1ccc(-c2cc(C(F)(F)F)n3nc(C(=O)NCCCn4ccnc4)cc3n2)cc1 |  | inactive: -1.2%
O=C(NCc1ccco1)C1CCCN1C(=O)Nc1ccc(Br)cc1 (configuration not stated) |  | inactive: -1.14%
Nc1ccc(C(=O)N/N=C/c2cn(Cc3ccc(F)cc3)c3ccccc23)cc1 |  | inactive: -2.08%
COc1c(C)cccc1C(=O)Nc1ccc(N2CCOCC2)c(Cl)c1 | inconclusive [activator, full curve, poor fit] | 
CCC(=O)Nc1ccc(-c2ccc(N3CCCCC3)nn2)cc1 | inconclusive [activator, partial curve, poor fit] | 
COC(=O)c1cc2c(ccn2-c2ccc(F)cc2)n1Cc1ccc(OC(C)=O)cc1 | inconclusive [activator, full curve, poor fit] | 
O=C(NCCC(=O)N1CCCCC1)c1ccc(Br)cc1 | inconclusive [activator, partial curve, poor fit] | 
Cc1csc(SCc2nnc(-c3ccc(Cl)cc3)o2)n1 | inconclusive [activator, partial curve, poor fit] | 

SMILES | Potency | activity change, positive = activation
Cc1cc(C)c(C(CC(=O)c2cccs2)C(C#N)C#N)c(C)c1 (configuration not stated) | inconclusive [activator, partial curve, poor fit] | 
Cc1ccc(-n2nnnc2Sc2nc([N+](=O)[O-])nn2C)cc1 | inconclusive [activator, partial curve, poor fit] | 
CCCCCC(O)CCc1n[nH]c(=S)n1-c1ccccc1 (configuration not stated) |  | inactive: -3.05%
CC1=C(C)C(=O)C(N2CCOCC2)=CC1=O | inconclusive [activator, single point] | 
C=CCOc1cccc(/C=C/c2nc3ccccc3c(=O)[nH]2)c1 | inconclusive [activator, full curve, poor fit] | 
O=C(N/N=C/c1c[nH]c2ccccc12)c1ccc(Cl)cc1 | inconclusive [activator, partial curve, poor fit] | 
O=C(CN1C(=O)C2C3C=CC(C3)C2C1=O)Nc1ccc2c(c1)OCCO2 (configuration not stated) | inconclusive [activator, partial curve, poor fit] | 
COC(=O)/C=C1\S/C(=N/N=C/c2ccc(Cl)cc2)NC1=O |  | inactive: -1.51%
N/C(=N\N=C\c1ccc(O)cc1)c1nonc1N | inconclusive [activator, full curve, poor fit] | 
O=C(Cc1ccccc1F)Nc1ccccc1-c1ccccc1 | inconclusive [activator, partial curve, poor fit] | 
Cc1ccc2c(c1)c1c3n2CCN(CC(N)=O)C3CCC1 (configuration not stated) | inconclusive [activator, partial curve, poor fit] | 
CN(C)C(=O)c1cnc(-c2ccccc2)nc1-c1ccccc1 |  | inactive: -5.36%
Cc1ccsc1C(=O)NNC(=O)C1C2C=CC(C2)C1C(=O)O (configuration not stated) | inconclusive [activator, partial curve, poor fit] | 
CC1CCN(S(=O)(=O)c2ccc(NC(=O)C3CCN(C(=O)c4ccco4)CC3)cc2)CC1 |  | inactive: -2.96%
c1ccc(CSc2nnc(NC3=NCCCCC3)s2)cc1 | inconclusive [activator, partial curve, poor fit] | 
O=C(Nc1nnc(C2CC2)s1)C1Cc2ccccc2CN1S(=O)(=O)c1cccs1 (configuration not stated) |  | inactive: 18.1%
O=C(NNC1=C(C(=O)C(F)(F)F)CCC1)c1ccc(Br)cc1 | inconclusive [activator, single point] | 
O=C(CN1CCCc2ccccc21)N/N=C/c1ccc(O)cc1O | inconclusive [activator, partial curve, poor fit] | 
COc1ccc(N/N=C(\C#N)C(=N)N2CCOCC2)cc1 |  | inactive: 6.65%
O=C(CSc1ccccn1)Nc1ccc2c(c1)OCO2 |  | inactive: 12.5%
Cc1ccc(NC(=O)c2noc(C(C)C)c2[N+](=O)[O-])cc1 | inconclusive [activator, single point] | 
